The values that follow come from article PMC11995724, “Antibiotic target discovery by integrated phenotypic and activity-based profiling of electrophilic fragments” (Cell chemical biology, 2025).

Among all 3,200 compounds or so, about 110 (3.4%) showed an effect of 50% or more. This is one part of the list.

This test has as its system T1, V. cholerae SAD30.
T1 construct: SAD30
More on the design: species or system S. aureus MSSA476 (TSB) or V. cholerae SAD30 (LB); 384-well bacterial growth screen at 25 uM, OD600 relative to DMSO control. The note with it: relative growth, OD600, LB; 25 µM; inhibitor.
Regarding `CC(O)CN(Cc1ccc(Cl)c(F)c1)C(=O)CCl` (stereo not drawn) [5-K12, 2-chloro-N-[(4-chloro-3-fluorophenyl)methyl]-N-(2-hydroxypropyl)acetamide], the “% of control remaining” value is listed as 90.2806%.

For `COc1ccc(NC(=O)C(C#N)=Cc2c(C)n[nH]c2C)cc1` [8-I04, 2-cyano-3-(3,5-dimethyl-1H-pyrazol-4-yl)-N-(4-methoxyphenyl)prop-2-enamide], the “% of control remaining” value came to 78.518%.

Regarding `C=CCNC(=O)C(C#N)=Cc1ccc2c(c1)OCCO2` [9-L06, 2-cyano-3-(2,3-dihydro-1,4-benzodioxin-6-yl)-N-(prop-2-en-1-yl)prop-2-enamide], the “% of control remaining” value came out at 87.4915%.

Consider `Cc1ccc2nc(-c3ccc(F)cc3)c(CNC(=O)C(C)Cl)n2c1` (stereo not drawn) [5-D21, 2-chloro-N-{[2-(4-fluorophenyl)-6-methylimidazo[1,2-a]pyridin-3-yl]methyl}propanamide], for which the “% of control remaining” value is 81.7064%.

With `COc1ccccc1NC(=O)C(C#N)=Cc1cc(C)c(C)cc1C` [9-A10, 2-cyano-N-(2-methoxyphenyl)-3-(2,4,5-trimethylphenyl)prop-2-enamide], the “% of control remaining” value turned out to be 89.259%.

For the molecule `CC(NC(=O)C(C#N)=Cc1ccc2c(c1)OCCO2)c1ccccc1` (stereo not drawn) [8-M15, 2-cyano-3-(2,3-dihydro-1,4-benzodioxin-6-yl)-N-(1-phenylethyl)prop-2-enamide], the “% of control remaining” value is given as 73.0795%.

Turning to `N#CC(=Cc1ccccc1)C(=O)Nc1ccccc1-c1ccccc1` [8-A15, N-{[1,1'-biphenyl]-2-yl}-2-cyano-3-phenylprop-2-enamide], the “% of control remaining” value is recorded as 83.0048%.

Regarding `CCc1ccccc1NC(=O)CNC(=O)CCl` [4-I08, 2-chloro-N-{[(2-ethylphenyl)carbamoyl]methyl}acetamide], the “% of control remaining” value turned out to be 103.515%.

Consider `CCCc1ccc(NC(=O)CCl)cc1` [6-I22, 2-chloro-N-(4-propylphenyl)acetamide], for which the “% of control remaining” value turned out to be 109.053%.

Take `C=CC(=O)NCC1CCN(c2ccccc2)C1` (stereo not drawn) [3-B17, N-[(1-phenylpyrrolidin-3-yl)methyl]prop-2-enamide]: the “% of control remaining” value was 107.44%.

With `CCOc1cccc(N2CCN(C(=O)C(C)Cl)CC2)n1` (stereo not drawn) [7-G07, 2-chloro-1-[4-(6-ethoxypyridin-2-yl)piperazin-1-yl]propan-1-one], the “% of control remaining” value was found to be 71.5017%.

Consider `C=CC(=O)N1CCC(C(=O)NCc2ccc(C(N)=O)cc2)CC1` [3-J08, N-[(4-carbamoylphenyl)methyl]-1-(prop-2-enoyl)piperidine-4-carboxamide], for which the “% of control remaining” value is 94.5598%.
